The campaign covered roughly 310,000 compounds. About 2,200 (0.71%) showed an effect of 50% or more. The effect is printed as a negative number. The list shows a part of the results.
Each compound was assayed against human ether-à-go-go-related gene (hERG) potassium channel (human, UniProt Q12809) (assay: primary screen, population patch clamp on CHO cells stably expressing hERG).
Sequence of human ether-à-go-go-related gene (hERG) potassium channel (Q12809 whole entry, looked up): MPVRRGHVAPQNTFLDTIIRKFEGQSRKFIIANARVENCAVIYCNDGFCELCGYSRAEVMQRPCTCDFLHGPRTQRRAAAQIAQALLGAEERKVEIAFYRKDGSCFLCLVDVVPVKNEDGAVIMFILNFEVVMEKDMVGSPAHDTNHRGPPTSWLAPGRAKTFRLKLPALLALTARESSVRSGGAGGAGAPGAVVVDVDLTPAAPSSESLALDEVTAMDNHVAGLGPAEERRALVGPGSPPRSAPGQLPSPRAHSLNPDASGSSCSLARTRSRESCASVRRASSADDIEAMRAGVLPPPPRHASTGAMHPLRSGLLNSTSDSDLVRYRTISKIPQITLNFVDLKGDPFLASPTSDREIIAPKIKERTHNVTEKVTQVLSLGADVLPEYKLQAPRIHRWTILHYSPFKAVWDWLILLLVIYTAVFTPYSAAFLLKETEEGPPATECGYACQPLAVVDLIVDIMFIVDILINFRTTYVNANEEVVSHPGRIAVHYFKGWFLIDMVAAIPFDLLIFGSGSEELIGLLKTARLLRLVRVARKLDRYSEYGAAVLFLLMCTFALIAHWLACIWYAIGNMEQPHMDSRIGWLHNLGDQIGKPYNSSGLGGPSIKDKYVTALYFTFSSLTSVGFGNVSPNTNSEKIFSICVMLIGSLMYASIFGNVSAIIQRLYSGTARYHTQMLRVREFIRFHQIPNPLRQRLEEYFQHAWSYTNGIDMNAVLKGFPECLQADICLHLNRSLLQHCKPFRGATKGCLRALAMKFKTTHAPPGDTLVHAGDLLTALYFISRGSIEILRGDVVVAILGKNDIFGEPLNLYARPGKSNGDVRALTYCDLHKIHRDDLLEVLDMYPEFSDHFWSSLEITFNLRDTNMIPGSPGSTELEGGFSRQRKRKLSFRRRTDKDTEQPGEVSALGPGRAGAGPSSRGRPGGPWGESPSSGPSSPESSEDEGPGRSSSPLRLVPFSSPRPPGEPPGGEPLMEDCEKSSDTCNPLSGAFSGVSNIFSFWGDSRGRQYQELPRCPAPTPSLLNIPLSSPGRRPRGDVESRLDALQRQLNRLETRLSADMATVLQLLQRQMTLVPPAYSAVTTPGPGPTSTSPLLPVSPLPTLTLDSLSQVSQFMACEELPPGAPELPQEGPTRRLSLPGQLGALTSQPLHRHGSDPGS

Compound	hERG current change (%, negative = inhibition) at 1uM [%]
CC(C)NCC(=O)Nc1c2c(nc3ccccc13)CCC2.O=C(O)C(=O)O	7.38
C/C(=N\NC(=O)C1COc2ccccc2O1)c1ccc(C)o1 (stereo not drawn)	12.7
c1cnc2nc(-c3ccc4c(c3)OCO4)cn2c1	6.52
CNC(=O)C1=C(C)n2c(nc3ccccc32)NC1c1ccc(OC)cc1 (stereo not drawn)	5.76
Cc1cc(C)c(S(=O)(=O)N2CCCCC2CCNC(=O)C(=O)NCC2CCCO2)c(C)c1 (stereo not drawn)	3.04
O=C(COc1ccc(Cl)cc1Cl)NC(=S)N1CCCc2ccccc21	14.8
CN(C)Cc1ccccc1CCc1ccccc1.Cl	7.19
CN1CCc2c(OCC(=O)N3CCC(Cc4ccccc4)CC3)cccc2C1=O	-2.56
CN(C)S(=O)(=O)c1cccc(C(=O)Nc2ccccc2N2CCCCC2)c1	16.6
Cc1ccc(C(=O)c2cc3ccccc3o2)cc1[N+](=O)[O-]	14.3
O=C(CSc1nnc(-c2ccc(Br)cc2)o1)N1CCN(C(=O)c2ccco2)CC1	-8.84
CC(C)(C)NC(=O)C(=O)NN=C1CCCCCCC1	7.64
CCOC(=O)CC1COCCN1Cc1cn[nH]c1-c1cc(OC)c(OC)c(OC)c1 (stereo not drawn)	3.28
O=C(Cn1cnc2ccccc21)N/N=C/c1cccnc1	17.4
CN(c1ccc([N+](=O)[O-])cc1C(N)=O)C1CCCCC1	7.23
CCOc1ccc(NC(=S)N(CCOC)C(C)c2cccnc2)cc1 (stereo not drawn)	14.9
Cc1cccc(N(CC(=O)N/N=C/c2ccc(OCC(=O)NCc3ccco3)cc2)S(C)(=O)=O)c1C	9.76
Cc1cc(C)c2nc(-c3cccnc3)cc(C(=O)NC(C)c3cnn(C)c3C)c2c1 (stereo not drawn)	12.1
Oc1ccc(C2C(c3ccccc3)=NN=C(c3ccccc3F)N2O)c(O)c1 (stereo not drawn)	11.6
Cc1cccc2c1N(CCCOc1ccccc1)C(=O)C2=O	-2.18
COCC1=C(C(=O)OC(C)OC(=O)OC(C)C)N2C(=O)[C@@H](NC(=O)/C(=N\OC)c3csc(N)n3)[C@H]2SC1 (stereo partly drawn)	10.2
COc1ccc(CNc2oc(COc3ccccc3)nc2C#N)cc1	9.97
COc1cc(CN(CC2CCCO2)C(=O)c2ccco2)cc(OC)c1OC (stereo not drawn)	15.3
CNC(=O)c1snnc1-c1ccccc1	10.6
